Experimental findings from PubChem BioAssay AID463173 (ICCB-Longwood Screening Facility, Harvard Medical School, 2010) are described below.

The whole screen tested about 52,000 compounds, of which about 4,300 (8.3%) were called active. No stated cut-off is given here; in the data, active means survival mostly below about 52% (no sharp cut-off); inactive means mostly above about 56%. Some of the results follow.

The test system of the assay is DeltatarO mutant. Description: S. aureus survival, RN4220 and DeltatarO strains – OD600, teichoic acid synthesis inhibitors, primary screen (AID 463173). To be noted: S. aureus RN4220 wild type/DeltatarO growth, OD600, 18 h, active compounds read low, screened at 18.75 µg/mL (by protocol).
As for `CN1C(=O)c2ccccc2N(C)C1c1cccs1` (stereo not given), the survival is inactive: 98%.
On to `Cc1nn(-c2ccc(N3CCCC3)nn2)c(C)c1CCC(=O)NCc1ccccc1`, for which the survival is inactive: 85%.
The result for `COc1ccc(-c2nc3scc(CCNS(=O)(=O)c4c(C)cc(C)cc4C)n3n2)cc1OC` reads inactive: 85%; that for `CCc1nn2c(=O)cc(COC(=O)c3ccc4c(c3)OCO4)nc2s1`, inactive: 76%.
The result for `O=C(NCCn1cc(SCc2ccccc2)c2ccccc21)c1cccs1` reads active: 54%; that for `CCCc1cc(=O)[nH]c(Nc2ccccc2O)n1`, inactive: 67%; that for `CCN(C(=O)c1ccc(Br)cc1)c1ccccc1`, inactive: 77%.
Under `Cc1cc(C)cc(C(=O)Nc2cccc(-c3nc4ncccc4o3)c2C)c1` stands inactive: 75%; under `COc1ccccc1CNC(=O)CCCCn1c(=O)c2ccccc2n(Cc2ccccc2C)c1=O`, inactive: 90%.
Regarding `CC(C)(C)C1CCc2c(sc(NC(=O)c3ccccc3F)c2C(=O)NCc2ccco2)C1` (stereo not given), the survival is inactive: 61%.
Under `CC(=O)c1c(C)n(-c2ccc(Cl)cc2)c2ccc(OC(=O)COc3ccccc3)cc12` stands inactive: 63%; under `COc1ccc(N2C(=O)CS(=O)(=O)C23C(=O)N(Cc2ccc(C)cc2)c2ccccc23)cc1Cl` (stereo not given), inactive: 80%.
Consider `O=C(NCc1ccc(F)cc1)c1ccc2c(c1)nnn2C1CCCC1`, for which the survival was inactive: 134%.
Under `CCOc1ccc(NC(=O)N2CCN(Cc3cc(=O)n4nc(-c5ccc(OC)cc5)sc4n3)CC2)cc1` stands inactive: 90%; under `Cc1c(NC(=O)c2cc(-c3ccc(Cl)cc3)on2)c(=O)n(-c2ccccc2)n1C`, inactive: 121%.
The result for `CCOC(=O)c1[nH]c(C)c(CCC(=O)NCc2ccc(OC)cc2)c1C` reads inactive: 99%.
The result for `Cc1cccc(NC(=O)Cn2c(=O)ccc3cc(S(=O)(=O)N4CCCC4)ccc32)c1C` reads inactive: 105%.
In the case of `CC(=O)c1ccc(NC(=O)C2CCC(CNS(=O)(=O)c3cccs3)CC2)cc1` (stereo not given), the survival is inactive: 67%.
The result for `COc1cccc(Cc2nc3ccccc3nc2SCC(=O)NCc2ccc(C)cc2)c1` reads inactive: 76%; that for `COc1ccc(CCNC(=O)c2ccc3c(c2)nc2n3CCC(C)C2)cc1OC` (stereo not given), inactive: 84%; that for `CCOC(=O)c1noc2nc(C)n(Cc3cccc(C#N)c3)c(=O)c12`, inactive: 87%.
`COc1cccc(C(=O)NC(=S)NCc2ccco2)c1`: the survival was inactive: 93%.
Under `CCN(C(=O)Cn1cnc2onc(-c3ccc(F)cc3)c2c1=O)c1cc(C)ccc1C` stands inactive: 77%; under `CCn1c(C(=O)NCc2cc(Br)ccc2OC)cc2oc3ccccc3c21`, inactive: 67%; under `CC1=CC(C)(C)N(C(=O)Cc2ccccc2)c2ccccc21`, inactive: 115%.
